Data taken from the supplement of paper PMC10600219.
Counter-ions that a name gives are not always drawn. In all, about 2,800 compounds were measured (“cell viability relative to vehicle”: median about 1.1, lowest 2% from about 0.19 on). Some of the results follow.

test system: NCI-H2228 parental; experiment: cell viability relative to vehicle (fraction of vehicle); NCI-H2228 is an ALK-positive lung cancer line and DTP means drug-tolerant persister; higher = less growth inhibition; settings: 100 nM; treatment time 6 days
Outline: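 Each value is viability relative to vehicle-treated cells, measured as ATP with the CellTiter-Glo 3D Cell Viability Assay. Parental NCI-H2228 cells and drug-tolerant persisters (1000 nM targeted drug, 13 days) in 384-well plates received the 3114-agent TargetMol anti-cancer compound library at 100 nM, or DMSO, and were read 6 days later.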

Q: For `O=C(Nc1ccccc1C(=O)NC1CCCCNC1=O)c1cc2ccccc2s1` (centres undefined), which cell viability is on record?
A: 1.07

Q: For `Cc1ccc(C2Nc3ccccc3-n3c(-c4ccccc4)c4c(=O)n(C)c(=O)n(C)c4c32)o1` (centres undefined), which cell viability is on record?
A: 1.09

Q: `CC(C)OC(=O)N1CCC(Oc2ncnc3c2cnn3-c2ccc(S(C)(=O)=O)cc2F)CC1` was tested. Which cell viability did it give?
A: 1.15

Q: For `CN[C@@H](C)C(=O)N[C@H]1CN(C(=O)CC(C)C)CC[C@H]2CC[C@@H](C(=O)NC(c3ccccc3)c3ccccc3)N2C1=O`, which cell viability is on record?
A: 1.09

Q: For `CN1[C@@H]2CC[C@H]1C[C@@H](OC(=O)c1c[nH]c3ccccc13)C2` [Tropisetron hydrochloride], which cell viability is on record?
A: 0.831

Q: For `COCCNCc1ccc(-c2cc3nccc(Oc4ccc(NC(=O)C5(C(=O)Nc6ccc(F)cc6)CC5)cc4F)c3s2)nc1` [Sitravatinib], which cell viability is on record?
A: 1.06

Q: With `Nc1nc(CC(=O)Nc2ccc(CCNC[C@H](O)c3ccccc3)cc2)cs1` [Mirabegron] as the compound, how does the cell viability read?
A: 1.09

Q: `NC[C@@H]1O[C@H](O[C@H]2[C@@H](O)[C@H](O[C@@H]3[C@@H](O)[C@H](N)C[C@H](N)[C@H]3O[C@H]3O[C@H](CO)[C@@H](O)[C@H](O)[C@H]3N)O[C@@H]2CO)[C@H](N)[C@@H](O)[C@@H]1O` [Paromomycin Sulfate] was tested. Which cell viability did it give?
A: 0.966

Q: For `CC[C@]1(O)C[C@H]2CN(CCc3c([nH]c4ccccc34)[C@@](C(=O)OC)(c3cc4c(cc3OC)N(C=O)[C@H]3[C@@](O)(C(=O)OC)[C@H](OC(C)=O)[C@]5(CC)C=CCN6CC[C@]43[C@@H]65)C2)C1` [Vincristine sulfate], which cell viability is on record?
A: 0.317

Q: For `Cc1cc(=O)[nH]c(=S)[nH]1` [Methylthiouracil], which cell viability is on record?
A: 1.08

Q: `CCOc1ccc(Nc2nc(-c3c(C)nc4ccccn34)cs2)cc1` was tested. Which cell viability did it give?
A: 0.331

Q: Which cell viability does the source give for `O=S(=O)(NCCSSCCNS(=O)(=O)c1cc(Cl)ccc1Cl)c1cc(Cl)ccc1Cl` here?
A: 1.01

Q: How did the cell viability turn out when `Cc1cc(/C=C/C#N)cc(C)c1Nc1ccnc(Nc2ccc(C#N)cc2)n1` [Rilpivirine] was run?
A: 0.983

Q: `Cc1ncc(NC(=O)c2cccc(C(F)(F)F)c2)cc1-c1cnc(OC2CCOCC2)c(N2CCOCC2)c1` was tested. Which cell viability did it give?
A: 1.01

Q: How did the cell viability turn out when `CCOc1cc2ncc(C#N)c(Nc3ccc(F)c(Cl)c3)c2cc1NC(=O)/C=C/CN(C)C` [Pelitinib] was run?
A: 0.685

Q: `C=C1C(=O)[C@]23[C@H](O)[C@H]1CC[C@H]2[C@@]12CO[C@]3(O)[C@@H](O)[C@@H]1C(C)(C)CC[C@@H]2O` [Oridonin] was tested. Which cell viability did it give?
A: 1.17

Q: How did the cell viability turn out when `OCCOCCN1CCN(Cc2cccc(Oc3ccccc3)c2)CC1` was run?
A: 1.07

Q: With `COc1ccc([C@@H]2OC[C@H]3[C@@H]2CO[C@@H]3c2ccc3c(c2)OCO3)cc1OC` [Fargesin] as the compound, how does the cell viability read?
A: 1

Q: Which cell viability does the source give for `CCN(CC)CCNC(=O)c1c(C)[nH]c(/C=C2\C(=O)Nc3ccc(F)cc32)c1C` [Sunitinib Malate] here?
A: 1.02

Q: `Cc1ncc(CCCN(C)C)cc1Nc1ncc2c(n1)-c1ccc(C(F)(F)F)cc1NC(=S)C2` was tested. Which cell viability did it give?
A: 0.178

Q: How did the cell viability turn out when `Oc1ccc(/C=C/c2cc(O)cc(O)c2)cc1` [Resveratrol] was run?
A: 1.28

Q: Which cell viability does the source give for `C=CC(=O)Nc1cc(Nc2ncc(C(=O)Nc3cc(NC(=O)c4cc(OC)c(OC)c(OC)c4)ccc3C)c(NC)n2)ccc1C` here?
A: 1.13

Q: `CC(C)c1cc2c(c(O)c1O)[C@@]13CCCC(C)(C)[C@@H]1C[C@@H]2OC3=O` [Carnosol] was tested. Which cell viability did it give?
A: 1.04

Q: How did the cell viability turn out when `Nc1nc2[nH]cnc2c(=S)[nH]1` [Thioguanine] was run?
A: 0.582

Q: Which cell viability does the source give for `O=C(CN1CCN(C(=O)c2ccco2)CC1)Nc1cc(C(F)(F)F)ccc1Cl` here?
A: 1.08

Q: Which cell viability does the source give for `CC(C(=O)O)c1ccc2c(c1)[nH]c1ccc(Cl)cc12` (centres undefined) [Carprofen] here?
A: 0.867

Q: Which cell viability does the source give for `COc1ccc(CCC(=O)O)cc1OC` [3,4-Dimethoxyhydrocinnamic acid] here?
A: 1.26

Q: With `C=CCc1cccc(/C=N/NC(=O)CN2CCN(Cc3ccccc3)CC2)c1O` as the compound, how does the cell viability read?
A: 0.946

Q: For `CC(NC(=O)C(Cc1ccccc1)NC(=O)OCc1ccccc1)C(=O)CF` (centres undefined), which cell viability is on record?
A: 1.1

Q: How did the cell viability turn out when `CO/N=C(\C(=O)N[C@@H]1C(=O)N2C(C(=O)O)=C(CSc3nnnn3C)CS[C@H]12)c1csc(N)n1` [Cefmenoxime hydrochloride] was run?
A: 1.04

Q: For `O=C1c2c(O)cccc2C([C@@H]2O[C@H](CO)[C@@H](O)[C@H](O)[C@H]2O)c2cc(CO)cc(O)c21` (some centres undefined) [Aloin], which cell viability is on record?
A: 1.13

Q: With `O=C(Nc1cc(Oc2cc(F)c(NC(=O)C3(C(=O)Nc4ccc(F)cc4)CC3)cc2F)ccn1)C1CC1` [Altiratinib] as the compound, how does the cell viability read?
A: 1.06

Q: `O=C(Nc1cccc(C(F)(F)F)c1)Nc1cc(S(=O)(=O)NC2CC2)ccc1-c1ccsc1` was tested. Which cell viability did it give?
A: 1.09

Q: With `CN(C)CCN1C(=O)c2cccc3cc(NC(N)=O)cc(c23)C1=O` as the compound, how does the cell viability read?
A: 0.978

Q: For `Cc1c(C)c(NCC(=O)N(C)C2CCN(Cc3ccc(C(N)=O)cc3)CC2)c(C)c(C)c1N`, which cell viability is on record?
A: 1.02

Q: `O=c1ccc2cc(O)c(O)cc2o1` [Esculetin] was tested. Which cell viability did it give?
A: 1.05

Q: Which cell viability does the source give for `O=C(OCC(O)CO)c1ccccc1Nc1ccnc2cc(Cl)ccc12` (centres undefined) [Glafenine] here?
A: 1.09

Q: `COc1ccc2c(c1)Nc1ccccc1S2` [2-Methoxyphenothiazine] was tested. Which cell viability did it give?
A: 1.11

Q: `CC1CNC(=O)NC1=O` (centres undefined) [Dihydrothymine] was tested. Which cell viability did it give?
A: 1.19

Q: With `COc1cc2c(N3CCN(C(=O)Nc4ccc(OC(C)C)cc4)CC3)ncnc2cc1OCCCN1CCCCC1` [Tandutinib] as the compound, how does the cell viability read?
A: 0.993

Q: For `Cc1cc(O)c2c(c1)C(=O)c1cccc(O)c1C2=O` [Chrysophanic Acid], which cell viability is on record?
A: 1.09

Q: For `CC(C(=O)O)c1ccc(-c2ccccc2)c(F)c1` (centres undefined) [Flurbiprofen], which cell viability is on record?
A: 1.1

Q: For `Cn1cnc2[nH]c(=O)[nH]c(=O)c21` [7-Methylxanthine], which cell viability is on record?
A: 1.24

Q: For `COc1ccccc1C(=O)Nc1cc2c(cc1N1CCCC1)n(C)c(=O)n2C`, which cell viability is on record?
A: 1.07

Q: `CC(CN1c2ccccc2S(=O)(=O)c2ccccc21)N(C)C` (centres undefined) [Dioxopromethazine hydrochloride] was tested. Which cell viability did it give?
A: 1.11

Q: Which cell viability does the source give for `CC1(C)CC[C@]2(C(=O)O)CCC3=C([C@@H](CCl)C[C@@H]4[C@@]5(C)C[C@H](O)[C@H](O)[C@@](C)(C(=O)O)[C@@H]5CC[C@@]34C)[C@@H]2C1` [Senegenin] here?
A: 1.11

Q: How did the cell viability turn out when `O=[N+]([O-])c1ccc(-c2nc(-c3ccc(F)cc3)c(-c3ccncc3)[nH]2)cc1` was run?
A: 1.1

Q: How did the cell viability turn out when `COc1cc(-c2cn(C)c(=O)c3cnccc23)cc(OC)c1CN(C)C` was run?
A: 0.896

Q: How did the cell viability turn out when `CNCCCC1c2ccccc2C=Cc2ccccc21` [Protriptyline hydrochloride] was run?
A: 1.04

Q: How did the cell viability turn out when `N[C@@H](CSCCB(O)O)C(=O)O` was run?
A: 1.01

Q: With `O[C@@H]1[C@@H](O)[C@@H](OC/C=C/c2ccccc2)O[C@H](CO[C@@H]2OC[C@H](O)[C@H](O)[C@H]2O)[C@H]1O` [Rosavin] as the compound, how does the cell viability read?
A: 1.08

Q: `C[C@]12CCC(=O)C=C1CC[C@@H]1[C@@H]2[C@@H](O)C[C@@]2(C)[C@H]1CC[C@]2(O)C(=O)CO` [Hydrocortisone] was tested. Which cell viability did it give?
A: 1.02

Q: How did the cell viability turn out when `O=C(O)[C@H]1O[C@@H](Oc2cc3oc(-c4ccc(O)cc4)cc(=O)c3c(O)c2O)[C@H](O)[C@@H](O)[C@@H]1O` [Scutellarin] was run?
A: 1.01

Q: Which cell viability does the source give for `Cc1onc(-c2ccccc2)c1-c1ccc(S(N)(=O)=O)cc1` [Valdecoxib] here?
A: 0.98

Q: Which cell viability does the source give for `Oc1ccc2c(c1)OCO2` [Sesamol] here?
A: 1.06

Q: `O=C(Nc1ccccc1)c1cc([N+](=O)[O-])ccc1Cl` was tested. Which cell viability did it give?
A: 1.08

Q: Which cell viability does the source give for `C=C1C(=O)O[C@@H]2/C=C(\C)CC/C=C(\C)CC[C@@H]12` [Costunolide] here?
A: 1.13

Q: For `c1ccc2c(Cc3c[nH]c4ccccc34)c[nH]c2c1` [3,3'-Diindolylmethane], which cell viability is on record?
A: 1.16

Q: With `CCC(=O)N1CCN(c2ccc(-n3c(=O)ccc4cnc5ccc(-c6cnc7ccccc7c6)cc5c43)cc2C(F)(F)F)CC1` [Torin 1] as the compound, how does the cell viability read?
A: 0.306

Q: For `CO/N=C(\C(=O)N[C@@H]1C(=O)N2C(C(=O)OCOC(=O)C(C)(C)C)=C(/C=C\c3scnc3C)CS[C@H]12)c1csc(N)n1` [Cefditoren pivoxil], which cell viability is on record?
A: 1.26

Q: How did the cell viability turn out when `COCc1c(-c2ccc(NC(=O)Nc3cc(C(F)(F)F)ccc3F)c(F)c2)c2c(N)ncnn2c1CN1CCOCC1` was run?
A: 0.546

Q: How did the cell viability turn out when `Cc1ccc(-c2ccc(F)cc2COc2ccc(CCC(=O)O)cc2)cc1` was run?
A: 1.1

Q: Which cell viability does the source give for `Cc1nc2ccc(-n3ncc(C(=O)c4cc5ccccc5[nH]4)c3N)cc2[nH]1` here?
A: 1.01

Q: With `CCCCC(=O)O[C@H]1CC[C@H]2[C@@H]3CCc4cc(O)ccc4[C@H]3CC[C@]12C` [Estradiol valerate] as the compound, how does the cell viability read?
A: 1.15

Q: `N#Cc1c(O)c2c(-c3ccc(-c4ccccc4O)cc3)csc2[nH]c1=O` was tested. Which cell viability did it give?
A: 0.969

Q: Which cell viability does the source give for `CC(C)n1cnc2c(NCc3ccccc3)nc(NCCCO)nc21` [Bohemine] here?
A: 1.08

Q: `O=C(OC[C@H]1O[C@@H](OC(=O)c2cc(O)c(O)c(OC(=O)c3cc(O)c(O)c(O)c3)c2)[C@H](OC(=O)c2cc(O)c(O)c(OC(=O)c3cc(O)c(O)c(O)c3)c2)[C@@H](OC(=O)c2cc(O)c(O)c(OC(=O)c3cc(O)c(O)c(O)c3)c2)[C@@H]1OC(=O)c1cc(O)c(O)c(OC(=O)c2cc(O)c(O)c(O)c2)c1)c1cc(O)c(O)c(OC(=O)c2cc(O)c(O)c(O)c2)c1` [Tannic acid] was tested. Which cell viability did it give?
A: 1.03

Q: `N=C(N)c1ccc(OCCCCCOc2ccc(C(=N)N)cc2)cc1` [Pentamidine isethionate] was tested. Which cell viability did it give?
A: 1.04

Q: `Cc1[nH]c2ccccc2c1CCNC(=O)c1cccs1` was tested. Which cell viability did it give?
A: 1.06

Q: How did the cell viability turn out when `O=c1cc(-c2cccc3c2Sc2ccccc2S3)oc(N2CCOCC2)c1` was run?
A: 1.16

Q: With `Oc1ccc([C@H]2COc3cc(O)ccc3C2)cc1` [Equol] as the compound, how does the cell viability read?
A: 0.937

Q: Which cell viability does the source give for `CN1CCc2c(c3ccccc3n2Cc2ccccc2)C1` [Mebhydrolin napadisylate] here?
A: 1.17

Q: For `O=C([C@@H](Cc1cccc(C(F)(F)F)c1)NS(=O)(=O)c1cc(F)c2c(c1)CCNC2)N1CCCC1` [(R)-PFI-2 hydrochloride], which cell viability is on record?
A: 0.997

Q: `Nc1nc(Cl)nc2c1ncn2[C@H]1C[C@H](O)[C@@H](CO)O1` [Cladribine] was tested. Which cell viability did it give?
A: 0.201
